Here are results for 22 molecules from publication PMC12136788.

The other results are listed elsewhere or left out.

The chains are these.
T1: UNK ZnF1-3 (human, UniProt Q9C0B0 31-174)
T1 sequence: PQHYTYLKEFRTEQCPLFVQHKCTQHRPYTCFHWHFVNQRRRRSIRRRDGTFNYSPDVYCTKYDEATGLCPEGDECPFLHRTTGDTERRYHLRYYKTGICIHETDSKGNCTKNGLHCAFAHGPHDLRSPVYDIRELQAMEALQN

B1: 113976164_113977287_983_CDS_ENSMUSG00000040383_ENSMUST00000043160|mouse|control|control (ssRNA)
RNA: GGGAGUUCUACAGUCCGACGAUCGUGAACAAGACUGGAGAGGUAGCAGUGAACCAGAAGGUGGGAGUCAUCCAGGAUGGUGUUAAACCAGCGCCUCGUGGGGAGUAGAGCCUCUAGAUCAAUCAUCAGUUCGAUGAAUCUUUCCAACAGAGGAUUGAGCAUCA
B2: chr3:138219032:138219033:+_ENSMUSG00000028156_ENSMUST00000029803|mus_mus|motif|central (ssRNA)
RNA: GGGAGUUCUACAGUCCGACGAUCUGUUACACGAGGAAAAAAACAAAAGCAAAACAAAUGAAAAACUGAAAUCAGAAUCACGGAUGUUAUCAAGGAGGGAAGCAAAUAAAUUAAAUCUAGCAGCCAUCAGCAAGAGGACAGCAACAACAGAGGAUUGAGCAUCA
B3: chr14:72968675:72968676:-_ENSMUSG00000033487_ENSMUST00000089017|mus_mus|motif|central (ssRNA)
RNA: GGGAGUUCUACAGUCCGACGAUCGUACAGGACCUCUUCACUAAAAUCACUUACACCAUAGUCAUUUUUGGCUGAUAAUCGGAAUUUACAACCCAUUGCUGGUGAGAGUUUGGUAAUUUUAAAUUGCUUCUGUGAGCCCAUGUACAACAGAGGAUUGAGCAUCA
B4: chr1:160278953:160278954:-_ENSG00000122218_ENST00000241704|hu_mus|motif|central (ssRNA)
RNA: GGGAGUUCUACAGUCCGACGAUCCUGGGAGUCUGCGUCUUUGGGGAUGGUGUAUAGGUCGUAGGUACUGUUCUCGGGAUUGCUUGCUCUGGUGCAGAGCAGCACUGCGUUUUCUGCUGGAUUGUAUGACAUGUUGAAUACUGGCAACAGAGGAUUGAGCAUCA
B5: chr16:20405944:20405945:-_ENSMUSG00000022822_ENSMUST00000134962|mus_mus|FALSE|FALSE (ssRNA)
RNA: GGGAGUUCUACAGUCCGACGAUCAUGCACAGAGAUAUCCAGGGAAAGCCCCUCAACUCGGGCUGCUGUUUCGAGAGCAUCUUGGCAUUCCAACGAUCUUGUUCUCCGGAACCUGGGUUCCUCGGGGUCUCUGUGUUGCCCUGGCAACAGAGGAUUGAGCAUCA
B6: chr22:19452774:19452775:-_ENSG00000070010_ENST00000399523|hu_hu|motif|central (ssRNA)
RNA: GGGAGUUCUACAGUCCGACGAUCCUUUUCAUUAUAGUUGAUGGCAAUCACAUCCCCGGUGGUCAGACAGGCAAAGUUCCGGAGUGCGUUUUCUAAUACGGCUUUGGGGUUGGUGAUGUCCAGGAAGUCAGGGCUCUGAGGUUGCAACAGAGGAUUGAGCAUCA
B7: chr7:54825262:54825263:-_ENSG00000132432_ENST00000352861|hu_hu|hu_hu_hu_mus_False|38_58 (ssRNA)
RNA: GGGAGUUCUACAGUCCGACGAUCCUGCCGGCUGGGCUCCACAAACUGCAUUACCUGAUCCAUGUUUGUUGGAUGGCACACCUAAAACGUAGAGACAACGUAGCACUGAGAGAACCGAGCCCAACGGAACCGGAAGCUGGCAACCAACAGAGGAUUGAGCAUCA
B8: 88183167_88183488_3190_3pUTR_ENSMUSG00000005621_ENSMUST00000107353|mouse|control|control (ssRNA)
RNA: GGGAGUUCUACAGUCCGACGAUCGGGUUGUGAAAGGACUGUUCACACUGCCGGCAUGGGUACCGCUUCAGCGUCCGACCGUGGCUCUUUUUCAUGUGAGACACGUAGCUCUCUCGAUCAGGAACCCACUCUUGGCACUCCUGACAACAGAGGAUUGAGCAUCA
B9: chr4:25749455:25749456:-_ENSG00000091490_ENST00000264868|hu_hu|hu_hu_hu_mus_False|8_98 (ssRNA)
RNA: GGGAGUUCUACAGUCCGACGAUCGCACUAUGACCUCCCCUAGAAAACACAGGGGGAAAAAAUGUAAACCAAUGUACAAUGUUAUCGCCUUCCCUGUGUGUGGAGUGUUUGUCUCAAGGCUCCUUCUUGCCUUAUAAUUUGGGACAACAGAGGAUUGAGCAUCA
B10: chr1:36770067:36770068:+_ENSG00000054118_ENST00000354618|hu_mus|motif|central (ssRNA)
RNA: GGGAGUUCUACAGUCCGACGAUCUUAAGAGUCAAAGUUGCCCAAAUUAAAAUCUUUACACUAAUAUUACUAUAUAUCCCCGGAAAAGAAGAAAAAGAAAAAAGGAUUUCUUAAUAAAACUCAGGACAGGAAGAGACUGAAAACCAACAGAGGAUUGAGCAUCA
B11: chr22:32879901:32879902:+_ENSG00000100225_ENST00000397426|hu_mus|hu_hu_hu_mus_False|58_58 (ssRNA)
RNA: GGGAGUUCUACAGUCCGACGAUCCUCUUCCAUACUCAUGGCAUCCUGAAUUGACUCAGCUUCAACAUUUUGACUAGGCCCUAACAUACUGUCAUCAGUCCAGGCAUCAAAUGGGGUGGCCUGUCCUUGGGAUGAAUCAGUCCCCAACAGAGGAUUGAGCAUCA
B12: chr8:95500983:95500984:-_ENSG00000164944_ENST00000437199|hu_hu|hu_hu_hu_mus_True|48_98 (ssRNA)
RNA: GGGAGUUCUACAGUCCGACGAUCAGAACACAUCUAUUCGUGUAAAGACCGUACAUGACGGCCUCUACCACUGCCUCCACUAACAAAACUUUCCUCUGAGCCUCCACUGCCGCUAUUUGUACUAGCCCAGGACGGUCCCAGGCCCAACAGAGGAUUGAGCAUCA
B13: chr16:46991118:46991119:-_ENSG00000069345_ENST00000563158|hu_hu|FALSE|FALSE (ssRNA)
RNA: GGGAGUUCUACAGUCCGACGAUCUCCUCUGUUUCUCCAAUUAUGUUAGGAACUUCCGGUCUAGAUGGCAGAAGAUCUUCUAGUUCAGAAAGCUUGUCUGGGUUGAUCCAGUUGUUUUCAGGAAACUGCACAUCAAACUUUAUGCAACAGAGGAUUGAGCAUCA
B14: chr7:141438946:141438947:+_ENSG00000106028_ENST00000265304|hu_mus|hu_hu_hu_mus_True|28_88 (ssRNA)
RNA: GGGAGUUCUACAGUCCGACGAUCGACGAAAUACCUGUAACACAGGUGAAACAUGGCUGGCUUCUGUUUUUCUUACAACCUAAUCUUUAGGCUUUUCCUAAAGGAAAAACCCGAGCAAGAAAAAUGAUAAAUCAAGAAACUACACAACAGAGGAUUGAGCAUCA
B15: 138452885_138453005_684_CDS_ENSG00000189184_ENST00000344876|human|control|control (ssRNA)
RNA: GGGAGUUCUACAGUCCGACGAUCCUGCAGAUGCUCUGUGGGUAGAGUGAUCACAUCAAACUCUAUGGAACAGUUCAAGUUUUUCUGGCACAGUUGUUCACGGUCAAUUGUAGCCCCUAUGCUGAUUUCCCCAUUAUCCUCGUUCAACAGAGGAUUGAGCAUCA
B16: chr7:141445308:141445309:+_ENSG00000106028_ENST00000265304|hu_hu|hu_hu_hu_mus_False|18_48 (ssRNA)
RNA: GGGAGUUCUACAGUCCGACGAUCUAUGAUUGUUGUUGCUUGCCGCCUCACAUUGUUUUUAUCCAUGUACUCGCCAUAGUCCACUUUCCCUUCCAAAAAUAUACGAGCCCCCUUUUUCACAUAUUGAUAUGCCACAUCUCUGAGCAACAGAGGAUUGAGCAUCA
B17: chr10:94956308:94956309:-_ENSMUSG00000062981_ENSMUST00000075829|mus_hu|motif|central (ssRNA)
RNA: GGGAGUUCUACAGUCCGACGAUCCCGAGGGAUAGGUUUUGUGUGUUCAUAUGGAAUGUCCACAGAAGGGUGGUAGCAUACGGUUGUCCUGCCAUCAGAAGUCAGAGCAAGCUCUACGUUGCAAUUAUAGUCAUCUGGUAGAGGCAACAGAGGAUUGAGCAUCA
B18: chrX:148369136:148369137:+_ENSMUSG00000025261_ENSMUST00000112622|mus_hu|FALSE|FALSE (ssRNA)
RNA: GGGAGUUCUACAGUCCGACGAUCUGCAAAGGCUACUGCCUUUUUAAAACACAUGGGGUGGGGAUCAUGGACGGCAUGGAAAGGGGAGAGAAGGUGAGGAAACAGGCGGCGGGGAGAGAAUGAGAAGAGGAACAGGUAUGCGCUCAACAGAGGAUUGAGCAUCA
B19: chr12:42180722:42180723:-_ENSMUSG00000036295_ENSMUST00000043884|mus_hu|mus_mus_mus_hu_True|68_108 (ssRNA)
RNA: GGGAGUUCUACAGUCCGACGAUCCUGUAGGAGCAGAAUCUGUGUGUUAGCUGGCAAUCUGGCUGGGAAGUUUAAAAGACCUAAAUCAUUACAAUCCACUGUAGAUGCUUCCAUAUAAAUGGAUCUGGGUGUAAACCAAGGCCUCAACAGAGGAUUGAGCAUCA
B20: chr19:30113593:30113594:+_ENSMUSG00000024817_ENSMUST00000025739|mus_mus|FALSE|FALSE (ssRNA)
RNA: GGGAGUUCUACAGUCCGACGAUCUUUAACCUGAGCAUCAUUCUGCUUAGAUGUGCUAGGAAGACUGGAGUCUGGACGAACUAGCAGCUGAAUUAUAUCAUUCAGUCCAACGUCGUAGUCAAAUAAAGUAUAUCCAUUUUCCAACAACAGAGGAUUGAGCAUCA
B21: chr16:45382771:45382772:-_ENSMUSG00000022661_ENSMUST00000163230|mus_mus|FALSE|FALSE (ssRNA)
RNA: GGGAGUUCUACAGUCCGACGAUCGAGAGUGUUAUUGUGGGCCCAAUGGAUAGGGAGAGCAUGCUUUUGUAAAGAUGUGAACUACUCACUAAGACUAACAAUAUUGCCUAAGUGCUAUAAAAAUAAGUUAAAUGGACACAUUACCAACAGAGGAUUGAGCAUCA
B22: chr4:144460044:144460045:+_ENSG00000153147_ENST00000283131|hu_mus|hu_hu_hu_mus_False|18_48 (ssRNA)
RNA: GGGAGUUCUACAGUCCGACGAUCACGGUCCAUAGCCUGAAGAUCAACUUGCGGAUUCCAAUCUGAGUCAUAUAAAAUGACUACAUCAGCAGUCGCAAGAUUGAUGCCCAGACCACCAGCACGCGUGCUUAGCAUAAAUACAAACAACAGAGGAUUGAGCAUCA

The target of this test is T1, UNK ZnF1-3. The test can be described thus: nsRBNS (natural sequence RNA bind-n-seq); RBNS binding buffer (assumed for nsRBNS): 25 mM Tris pH 7.5, 150 mM KCl, 3 mM MgCl2, 0.01% Triton X-100, 500 ug/ml BSA, 20 U/ml SUPERase-In, 4 C; UNK is unkempt and MSI1 is Musashi-1; names of the RNAs are library labels; protein concentration not given here; high values mean tight binding.
On to B1, for which the binding signal was found to be 1.75 enrichment R.
The figure for B2 is 2.45 enrichment R.
For the molecule B3, the binding signal amounted to 1.29 enrichment R.
As for B4, the figure is 0.568 enrichment R; as for B5, 0.605 enrichment R; as for B6, 1.25 enrichment R.
The figure for B7 is 1.15 enrichment R; for B8 it is 0.739 enrichment R.
In turn, B9 yielded a binding signal of 1.07 enrichment R.
For B10, the binding signal turned out to be 2.35 enrichment R.
As for B11, the figure is 1.17 enrichment R; as for B12, 1.05 enrichment R; as for B13, 0.757 enrichment R.
Molecule B14 returned a binding signal of 0.714 enrichment R.
B15 displayed a binding signal of 0.858 enrichment R.
B16: the binding signal is 0.845 enrichment R.
The figure for B17 is 0.944 enrichment R.
In turn, B18 registered a binding signal of 1.98 enrichment R.
As for B19, the figure is 1.1 enrichment R.
The figure for B20 is 2.06 enrichment R.
As for B21, the figure is 2.33 enrichment R; as for B22, 0.732 enrichment R.
